# The supplement of paper PMC8728848
# Some of the results follow.
# B1: Gz-CVNH (Gibberella zeae) (protein)
# chain: MGSSHHHHHHSSGLVPRGSHMGNFHESSNNIWLEDGHILHAECGNGEGDYVESTLDLDYYIGNDDGSFSWGGENFSGSASNITLDIEGDDNIPVLRAELNPMDGDPVEANVNLSERIGNDCGTLIFLA
# How the values were obtained:
# Assay in all cases: glycan array binding signal (z-score within array); higher = stronger binding
# Conditions in all cases: glycan notation: IUPAC condensed, linker removed
# [1] = target: Fuc(a1-3)[Gal(b1-4)]GlcNAc(b1-2)Man(a1-3)[Fuc(a1-3)[Gal(b1-4)]GlcNAc(b1-2)Man(a1-6)]Man(b1-4)GlcNAc(b1-4)[Fuc(a1-6)]GlcNAc
# Procedure, shortened: (§1)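 Columns mapping to the same glycan were averaged after glycan names were converted to IUPAC-condensed notation. The data come from 3228 arrays in the Consortium for Functional Glycomics database, limited to those with an available protein sequence. Binding is reported as a within-array Z-score averaged across arrays of one protein sequence and across linkers.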
# [2] = target: Fuc(a1-3)[Gal(b1-4)]GlcNAc(b1-3)Gal(b1-3)[Fuc(a1-4)]GlcNAc
# Procedure, shortened: as §1
# [3] = target: Fuc(a1-3)[Gal(b1-4)]GlcNAc(b1-3)GalNAc
# Procedure, shortened: as §1
# [4] = target: Fuc(a1-3)[Gal(b1-4)]GlcNAc(b1-4)Gal(b1-4)[Fuc(a1-3)]GlcNAc
# Procedure, shortened: as §1
# [5] = target: Fuc(a1-3)[Gal(b1-4)]GlcNAc(b1-4)Gal(b1-4)[Fuc(a1-3)]GlcNAc(b1-4)Gal(b1-4)[Fuc(a1-3)]GlcNAc
# Procedure, shortened: as §1
# [6] = target: Fuc(a1-3)[Gal(b1-4)]GlcNAc(b1-6)GalNAc
# Procedure, shortened: as §1
# [7] = target: Fuc(a1-3)[Gal(b1-4)]GlcNAc(b1-6)[Gal(b1-3)GlcNAc(b1-3)]Gal(b1-4)Glc
# Procedure, shortened: as §1
# [8] = target: Fuc(a1-3)[Gal(b1-4)]GlcNAc(b1-6)[Neu5Ac(a2-3)Gal(b1-3)]GalNAc
# Procedure, shortened: as §1
# [9] = target: Fuc(a1-3)[Gal(b1-4)]GlcNAc6S
# Procedure, shortened: as §1
# [10] = target: Fuc(a1-3)[Gal3S(b1-4)]GlcNAc
# Procedure, shortened: as §1
# [11] = target: Fuc(a1-3)[Gal3S(b1-4)]GlcNAc6S
# Procedure, shortened: as §1
# [12] = target: Fuc(a1-3)[GalNAc(b1-4)]GlcNAc
# Procedure, shortened: as §1
# Fuc(a1-4)GlcNAc = target: Fuc(a1-4)GlcNAc
# Procedure, shortened: as §1
# Fuc(b1-3)GlcNAc = target: Fuc(b1-3)GlcNAc
# Procedure, shortened: as §1
# Gal(a1-2)Gal = target: Gal(a1-2)Gal
# Procedure, shortened: as §1
# Gal(a1-3)Gal = target: Gal(a1-3)Gal
# Procedure, shortened: as §1
# Gal(a1-3)Gal(b1-3)GlcNAc = target: Gal(a1-3)Gal(b1-3)GlcNAc
# Procedure, shortened: as §1
# [13] = target: Gal(a1-3)Gal(b1-3)GlcNAc(b1-2)Man(a1-3)[Gal(a1-3)Gal(b1-3)GlcNAc(b1-2)Man(a1-6)]Man(b1-4)GlcNAc(b1-4)GlcNAc
# Procedure, shortened: as §1
# [14] = target: Gal(a1-3)Gal(b1-3)GlcNAc(b1-3)GalNAc
# Procedure, shortened: as §1
# [15] = target: Gal(a1-3)Gal(b1-3)[Fuc(a1-4)]GlcNAc(b1-2)Man(a1-3)[Gal(a1-3)Gal(b1-3)[Fuc(a1-4)]GlcNAc(b1-2)Man(a1-6)]Man(b1-4)GlcNAc(b1-4)GlcNAc
# Procedure, shortened: as §1
# Gal(a1-3)Gal(b1-4)Glc = target: Gal(a1-3)Gal(b1-4)Glc
# Procedure, shortened: as §1
# Gal(a1-3)Gal(b1-4)GlcNAc = target: Gal(a1-3)Gal(b1-4)GlcNAc
# Procedure, shortened: as §1
# [16] = target: Gal(a1-3)Gal(b1-4)GlcNAc(b1-3)GalNAc
# Procedure, shortened: as §1
# [17] = target: Gal(a1-3)Gal(b1-4)[Fuc(a1-3)]GlcNAc
# Procedure, shortened: as §1
# [18] = target: Gal(a1-3)Gal(b1-4)[Fuc(a1-3)]GlcNAc(b1-2)Man(a1-3)[Gal(a1-3)Gal(b1-4)[Fuc(a1-3)]GlcNAc(b1-2)Man(a1-6)]Man(b1-4)GlcNAc(b1-4)GlcNAc
# Procedure, shortened: as §1
# Gal(a1-3)GalNAc = target: Gal(a1-3)GalNAc
# Procedure, shortened: as §1
# [19] = target: Gal(a1-3)[Gal(a1-4)]Gal(b1-4)GlcNAc
# Procedure, shortened: as §1
# [20] = target: Gal(a1-4)Gal(b1-3)GlcNAc(b1-2)Man(a1-3)[Gal(a1-4)Gal(b1-3)GlcNAc(b1-2)Man(a1-6)]Man(b1-4)GlcNAc(b1-4)GlcNAc
# Procedure, shortened: as §1
# Gal(a1-4)Gal(b1-4)Glc = target: Gal(a1-4)Gal(b1-4)Glc
# Procedure, shortened: as §1
# Gal(a1-4)Gal(b1-4)GlcNAc = target: Gal(a1-4)Gal(b1-4)GlcNAc
# Procedure, shortened: as §1
# [21] = target: Gal(a1-4)Gal(b1-4)GlcNAc(b1-2)Man(a1-3)[Gal(a1-4)Gal(b1-4)GlcNAc(b1-2)Man(a1-6)]Man(b1-4)GlcNAc(b1-4)GlcNAc
# Procedure, shortened: as §1
# [22] = target: Gal(a1-4)Gal(b1-4)GlcNAc(b1-3)Gal(b1-4)Glc
# Procedure, shortened: as §1
# Gal(a1-4)GlcNAc = target: Gal(a1-4)GlcNAc
# Procedure, shortened: as §1
# Gal(a1-6)Glc = target: Gal(a1-6)Glc
# Procedure, shortened: as §1
# Gal(b1-2)Gal = target: Gal(b1-2)Gal
# Procedure, shortened: as §1
# Gal(b1-3)Gal = target: Gal(b1-3)Gal
# Procedure, shortened: as §1
# Gal(b1-3)Gal(b1-4)GlcNAc = target: Gal(b1-3)Gal(b1-4)GlcNAc
# Procedure, shortened: as §1
# [23] = target: Gal(b1-3)Gal(b1-4)GlcNAc(b1-2)Man(a1-3)[Gal(b1-3)Gal(b1-4)GlcNAc(b1-2)Man(a1-6)]Man(b1-4)GlcNAc(b1-4)GlcNAc
# Procedure, shortened: as §1
# Gal(b1-3)GalNAc = target: Gal(b1-3)GalNAc
# Procedure, shortened: as §1
# [24] = target: Gal(b1-3)GalNAc(a1-3)[Fuc(a1-2)]Gal(b1-4)Glc
# Procedure, shortened: as §1
# [25] = target: Gal(b1-3)GalNAc(a1-3)[Fuc(a1-2)]Gal(b1-4)GlcNAc
# Procedure, shortened: as §1
# [26] = target: Gal(b1-3)GalNAc(b1-3)Gal(a1-4)Gal(b1-4)Glc
# Procedure, shortened: as §1
# [27] = target: Gal(b1-3)GalNAc(b1-4)Gal(b1-4)Glc
# Procedure, shortened: as §1
# [28] = target: Gal(b1-3)GalNAc(b1-4)[Neu5Ac(a2-3)]Gal(b1-4)Glc
# Procedure, shortened: as §1
# Gal(b1-3)GlcNAc = target: Gal(b1-3)GlcNAc
# Procedure, shortened: as §1
binder,measurement,setting,value
B1,glycan array binding signal (z-score),[1],0.032
same,glycan array binding signal (z-score),[2],-0.114
same,glycan array binding signal (z-score),[3],0.031
same,glycan array binding signal (z-score),[4],-0.109
same,glycan array binding signal (z-score),[5],-0.128
same,glycan array binding signal (z-score),[6],-0.006
same,glycan array binding signal (z-score),[7],-0.145
same,glycan array binding signal (z-score),[8],-0.091
same,glycan array binding signal (z-score),[9],-0.116
same,glycan array binding signal (z-score),[10],-0.123
same,glycan array binding signal (z-score),[11],-0.066
same,glycan array binding signal (z-score),[12],-0.135
same,glycan array binding signal (z-score),Fuc(a1-4)GlcNAc,-0.152
same,glycan array binding signal (z-score),Fuc(b1-3)GlcNAc,-0.147
same,glycan array binding signal (z-score),Gal(a1-2)Gal,-0.136
same,glycan array binding signal (z-score),Gal(a1-3)Gal,-0.137
same,glycan array binding signal (z-score),Gal(a1-3)Gal(b1-3)GlcNAc,-0.169
same,glycan array binding signal (z-score),[13],0.025
same,glycan array binding signal (z-score),[14],-0.117
same,glycan array binding signal (z-score),[15],-0.066
same,glycan array binding signal (z-score),Gal(a1-3)Gal(b1-4)Glc,-0.152
same,glycan array binding signal (z-score),Gal(a1-3)Gal(b1-4)GlcNAc,-0.144
same,glycan array binding signal (z-score),[16],-0.134
same,glycan array binding signal (z-score),[17],-0.145
same,glycan array binding signal (z-score),[18],-0.1
same,glycan array binding signal (z-score),Gal(a1-3)GalNAc,-0.123
same,glycan array binding signal (z-score),[19],-0.135
same,glycan array binding signal (z-score),[20],-0.139
same,glycan array binding signal (z-score),Gal(a1-4)Gal(b1-4)Glc,-0.114
same,glycan array binding signal (z-score),Gal(a1-4)Gal(b1-4)GlcNAc,-0.14
same,glycan array binding signal (z-score),[21],-0.039
same,glycan array binding signal (z-score),[22],-0.122
same,glycan array binding signal (z-score),Gal(a1-4)GlcNAc,-0.153
same,glycan array binding signal (z-score),Gal(a1-6)Glc,-0.128
same,glycan array binding signal (z-score),Gal(b1-2)Gal,-0.154
same,glycan array binding signal (z-score),Gal(b1-3)Gal,-0.164
same,glycan array binding signal (z-score),Gal(b1-3)Gal(b1-4)GlcNAc,-0.138
same,glycan array binding signal (z-score),[23],-0.135
same,glycan array binding signal (z-score),Gal(b1-3)GalNAc,-0.113
same,glycan array binding signal (z-score),[24],-0.149
same,glycan array binding signal (z-score),[25],-0.164
same,glycan array binding signal (z-score),[26],-0.114
same,glycan array binding signal (z-score),[27],-0.154
same,glycan array binding signal (z-score),[28],-0.15
same,glycan array binding signal (z-score),Gal(b1-3)GlcNAc,-0.107
